From PubChem BioAssay AID743279 (National Center for Advancing Translational Sciences (NCATS), 2014)
The campaign covered roughly 360,000 compounds. About 17,000 (4.7%) were called active. The shares of active, inactive and inconclusive entries below differ from those in the screen. Cut-off read from the data, not from the text of the source: active = activity change below about -50%; inconclusive = mostly about -30% to -49%; inactive = weaker than that.

Test: qHTS for Inhibitors of Inflammasome Signaling: IL-1-beta AlphaLISA Primary Screen
Settings: THP-1 LPS/ATP IL-1B secretion, 16 h; at 57.5 µM, hits give low values
How it was run: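 THP-1 cells pretreated 1 hr with compounds (up to 57.5 uM final), then stimulated with LPS (250 ng/mL final) plus ATP (1.25 mM final); secreted IL-1B measured by AlphaLISA after 16 hr, decreased signal indicating inhibition.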
% is set by controls: 0 for no effect and ±100 for the full control effect.

Activity change, inactive:
O=C(NC1CC1)c1ccc(S(=O)(=O)NCC2CCCCC2)cc1 44.1%
CN1CCc2c(sc3nc(SCC(N)=O)n(-c4ccc(Cl)cc4)c(=O)c23)C1 10.2%
CC(C)[C@H](NC(=O)C1CCN(S(=O)(=O)c2ccc(F)cc2)CC1)C(=O)N1CCCCCC1 8.1%
O=C(CCCN1C(=O)c2cccc3cccc(c23)C1=O)N1CCN(c2ccccn2)CC1 -3.65%
CCc1nnc(SC(C)C(=O)Nc2nccs2)n1C (centres undefined) -17%
O=C(OCC(=O)N1CCCCCC1)c1ccc(Cl)c(S(=O)(=O)N2CCCC2)c1 -0.829%
CC(C)OCCCNCC(O)c1ccccc1 (centres undefined) -12%
Cc1cc(Br)cn2c(Cc3cccc(F)c3)c(C3CCCCC3)nc12 0%
O=C(CN1CCOCC1)Nc1ncc(Cc2ccccc2Cl)s1 -7.15%
COC(=O)c1ccc(N2CN=C(c3ccc(C)cc3)NC2=S)cc1 0%
CCOc1ncccc1C(=O)OC(C)C(=O)Nc1ccc(Cl)cn1 (centres undefined) 26.8%
CCOC(=O)[C@@H]1CCNC[C@@H]1c1ccccc1 -2.26%
Cc1cccc(C)c1C(OCCN(C)C)C1CCCCC1 (centres undefined) -8.19%
CN(C)S(=O)(=O)Nc1cc(Cl)cc(Cl)c1 44%
O=C(NC1CCCCC1)C(c1ccccc1)N(Cc1ccco1)C(=O)Cn1cnc2ccccc21 (centres undefined) -11.4%
COc1cccc(C(=O)OCC(=O)c2c[nH]c3ccccc23)c1O 7.76%
COc1ccc(C(=O)N2N=C(c3cccc(NS(C)(=O)=O)c3)CC2c2cccs2)cc1 (centres undefined) -25.8%
C(=N\NC1=NCCN1)/c1ccncc1 -1.87%
CC(C)Cn1c(N)c(C(=O)COC(=O)c2nccnc2N)c(=O)n(C)c1=O 9.62%

Activity change, inconclusive:
Cc1ccc2cc3cc(C(=O)NCc4ccco4)oc3nc2c1 -38.6%
Cc1cc(C)c([N+](=O)[O-])cc1-c1ccc(/C=N/NC(=O)c2nonc2N)o1 -45.5%
Cc1ccc(-c2cc(C(=O)N/N=C/C(Br)=C/c3ccccc3)n[nH]2)o1 -48.8%
COc1ccc(C(CNC(=O)COc2ccc(Br)cc2F)N2CCCC2)cc1 (centres undefined) -49%
Cc1cccc(-n2ncc3c(NC4CCCCC4)ncnc32)c1 -36.4%
COc1cc2c(cc1OC)-c1cc(NC3CCCCC3)nc(=O)n1CC2 -46.3%
CCCCN1C(=O)C(CC(=O)NCc2ccco2)CC(C(=O)N(C(C)C)C(C)C)=C1C (centres undefined) -35.6%
CCCCCCSc1ccc([C@H]2N[C@@](Cc3ccccc3)(C(=O)OC)[C@H]3C(=O)N(C)C(=O)[C@@H]23)cc1 -45.6%
Cc1ccc(-c2nnc(Nc3ccc(CC(N)=O)cc3)c3ccccc23)cc1S(=O)(=O)NCC1CCCO1 (centres undefined) -46.7%
Nc1cc(N)c2c(c1)C(=O)c1ccccc1-2 -41.8%
O=C(Nc1ccc(N2CCOCC2)cc1)c1ccc(Br)o1 -34.8%
S=C(NNc1nc(Nc2ccccc2)nc(N2CCCCC2)n1)NC1CCCCC1 -39.2%
CC1=C(C(=O)OC(C)(C)C)C(c2ccc3ccccc3c2)NC(=O)N1C (centres undefined) -31.2%
Clc1ccc(-c2cc(C3CCNCC3)[nH]n2)cc1 -34.5%
COc1ccc(OC)c(NC(=O)c2ccccc2N(Cc2ccccc2)S(C)(=O)=O)c1 -34.8%
Cc1ccc2c(c1C)NC(=O)C21N2CCCC2C(C(=O)c2ccc3ccccc3c2)C12C(=O)Nc1ccccc12 (centres undefined) -43.3%
O=C1CC(c2ccc(O)cc2)Oc2ccccc21 (centres undefined) -37.7%
COc1ccccc1NC(=O)N1CCN(c2ccc(F)cc2)CC1 -33.6%
Cc1cc(/C=C2/SC(=O)N(CC(=O)OC(C)C)C2=O)c(C)n1C -31.1%
Cc1csc(NC(=O)CSc2nnc(Cn3c(=O)sc4ccccc43)n2-c2ccccc2)n1 -34%
COc1ccc(S(=O)(=O)N2CCCCC2)cc1NC(=O)c1ccc(OC)c(OC)c1 -30.2%
O/N=C/c1cn(-c2ccccc2)nn1 -40.3%
C#Cc1ccc([C@H]2C=C(C(=O)NCc3ccccc3)O[C@@H](OCC)[C@@H]2CCCO)cc1 -39.1%
NC(c1ccccc1)c1csc(Nc2ccccn2)n1 (centres undefined) -37.1%
CC(=O)C1=C(c2ccccc2)NC(=S)NC1c1cc(Cl)c(OC(C)C)c(Cl)c1 (centres undefined) -36.6%
CCOC(=O)c1c(NC(=O)CSc2nnnn2C)sc(C)c1-c1ccc(C)cc1 -35.9%
CCCCn1c(N)c(N(CC(C)C)C(=O)c2oc3c(Cl)cccc3c2C)c(=O)[nH]c1=O -31.4%
CCOc1ccc(Cl)cc1-c1cc(C(=O)NCC2CCCCC2)[nH]n1 -33.7%
COc1ccc(Cn2nnnc2C(c2cc3cc(C)ccc3[nH]c2=O)N2CCN(C)CC2)cc1 (centres undefined) -34.4%
Cc1coc2cc3oc(=O)ccc3cc12 -47.8%
CCCCn1nnnc1C(c1ccccc1OC(F)(F)F)N1CCN(C/C=C/c2ccccc2)CC1 (centres undefined) -43.5%
O=C(C1=C[C@H](c2ccc3c(c2)OCO3)C[C@H](OCc2ccc(CO)cc2)O1)N1CCN(Cc2ccc3c(c2)OCO3)CC1 -49.5%
Cc1ccc(OCc2ccc(C(=O)Nc3c(C)nn(Cc4c(F)c(F)c(F)c(F)c4F)c3C)o2)c([N+](=O)[O-])c1 -33.9%
O=C(Nc1cccc(Cl)c1N1CCOCC1)c1ccco1 -42.6%
C[C@]1(C(=O)NCCCNc2ncc(C(F)(F)F)cc2Cl)C=C[C@@H](Cc2ccccc2)N1C(=O)c1ccccc1 -36.3%
CCOC(=O)N1CCc2c(sc(NC(=O)CN3CCN(C)CC3)c2C(=O)Nc2ccccc2)C1 -37.6%
COc1ccc(-n2c(SCC(=O)Nc3ccc(C(N)=O)cc3)nc3ccccc3c2=O)cc1OC -47.8%
COc1ccc(CNC(=O)C(C)n2nc(C)c3c(C)n(-c4ccccc4)nc3c2=O)c(OC)c1 (centres undefined) -40%
COc1ccc(NC(=O)c2cccs2)cc1NC(=O)c1ccco1 -40.6%
CC(C)Cc1cc(CN2CCCC(CO)(Cc3cccc(Cl)c3)C2)[nH]n1 (centres undefined) -36.4%
Cc1nn(-c2ccc(NC(=O)c3ccncc3)cc2)c(C)c1Cl -32%
O=c1c2ccccc2sc2ccc(C#CC3(O)CCCCC3)cc12 -43.8%
Cc1cccc(C)c1C(O)c1ncc(-c2ccc(Cl)cc2)[nH]1 (centres undefined) -38.6%
CCC(C)c1ccc(NC(=S)NCCn2cc(Cl)cn2)cc1 (centres undefined) -41.8%
COC(=O)c1ccc(CNC(=O)CN2C(=O)NC(Cc3ccccc3)(c3ccccc3)C2=O)cc1 (centres undefined) -39.3%
Cc1ccc2nc(-c3ccncc3)cc(-c3ccccc3)c2c1 -30.9%
CCCCn1c(N)c(N(CCOC)C(=O)CCC2CCCCC2)c(=O)[nH]c1=O -45.9%
CC1CCC2(CC1)NC(=O)N(CC(=O)Nc1ccc(C(N)=O)cc1)C2=O (centres undefined) -30.2%
CCN(CC)CCCN1C(=O)CSC1c1ccc2c(c1)OCO2 (centres undefined) -31.1%
O=C(NCc1ccco1)Nc1ccc([N+](=O)[O-])cc1 -34.8%
Cc1ccc(OCC(=O)Nc2ccc3c(c2)nc(CCN2CCC(C)CC2)n3C)cc1 -35.2%

Activity change, active:
Oc1ccc(Nc2nc(-c3ccccc3O)nc3ccccc23)cc1 -64.7%
CCc1nc2ccccc2c(C(=O)OCC(=O)Nc2cccc(S(=O)(=O)NC3=NCCCCC3)c2)c1C -83.7%
Cc1ccc(O)c(NC(=O)c2cc3nc4c(c(C(F)(F)F)n3n2)CCc2ccccc2-4)c1 -50.7%
COc1ccc(C2C(C#N)=C(N)N(c3ccccc3)C3=C2C(=O)CCC3)cc1Cn1cc([N+](=O)[O-])cn1 (centres undefined) -74.4%
CN1CC=C2C(C#N)=C(N)C(C#N)(C#N)C(c3cccc(Cl)c3Cl)C2C1 (centres undefined) -103%
CCOC(=O)c1csc(NC(=O)c2cc(OC)c(OC)c(OC)c2)n1 -53.9%
Cc1ccc(-c2ccccc2NC(=O)CS(=O)CC(=O)Nc2ccc(C)c(Cl)c2)o1 (centres undefined) -77.4%
Cc1ccc(CN2CCc3c(OCc4ccc(F)cc4)cccc3C2=O)cc1 -62.2%
CCN(CC(=O)Nc1ccccc1C(F)(F)F)C(=O)c1cc2c(s1)CCCCC2 -53.2%
CCSc1nsc(NC(=O)Nc2cccc(OC)c2)n1 -97.3%
COc1ccc(-c2ccc(/C=C(\NC(=O)c3ccccc3)C(=O)N3CCOCC3)o2)cc1 -56.7%
CCN1C(=O)[C@H]2[C@@H](c3ccc(-c4cccc(Cl)c4)c(OC)c3)N[C@@](CC(C)C)(C(=O)OC)[C@H]2C1=O -61.5%
COCCNc1c(-c2cc3ccc(C)c(C)c3[nH]c2=O)nc2ccccn12 -58.8%
CN(C)c1ccc(Nc2nc(N)c3ccccc3n2)cc1 -96.4%
